{
  "source": "PubChem BioAssay AID1814",
  "about": "(Broad Institute, 2009)",
  "note": "The whole screen tested about 300,000 compounds, of which about 22,000 (7.3%) were called active. This list was built around the results that the source calls inconclusive (neither active nor inactive); the mix of calls is not that of the screen. Cut-off read from the data, not from the text of the source: active = activity score below about -60%; inconclusive = mostly about -28% to -61%; inactive = positive scores.",
  "data": [
    {"test": "Activators via SNCA 5'UTR binding, MLPCN (AID 1814)", "conditions": "alpha-synuclein 5'UTR reporter, activators screen; hits give low values; tested at 7.5 µM", "values": [
      {"smiles": "O=C(Oc1c(-c2ccccc2)c(=O)n2c3c(cccc13)CC2)c1ccco1", "activity score": "inconclusive: -30.1%"},
      {"smiles": "CCCCN1C=CC(=C2N=c3cccc([N+](=O)[O-])c3=N2)C=C1", "activity score": "inconclusive: -49.3%"},
      {"smiles": "O=C(OCn1ncc(Br)c(Br)c1=O)c1ccc(F)cc1", "activity score": "inactive: 64.5%"},
      {"smiles": "C[n+]1c2n(c3ccccc31)N=C(c1ccccc1)CS2", "activity score": "active: -67.9%"},
      {"smiles": "O=C(O)CCN1C(=O)/C(=C\\c2ccncc2)SC1=S", "activity score": "inconclusive: -57%"},
      {"smiles": "CN1C(=O)/C(=C\\c2ccc(-c3ccccc3)o2)SC1=S", "activity score": "inconclusive: -59.3%"},
      {"smiles": "O=C(N/N=C/c1ccc([N+](=O)[O-])s1)c1ccccc1", "activity score": "inactive: 67.5%"},
      {"smiles": "Cc1ccc(/C=N/N2CCN(Cc3ccccc3)CC2)s1", "activity score": "active: -83.2%"},
      {"smiles": "CC(C)CCNc1c(-c2cccs2)nc2ccccn12", "activity score": "inconclusive: -51.4%"},
      {"smiles": "CC(=O)Nc1ccc(N/C=C/C(=O)c2ccc(C)o2)cc1", "activity score": "inconclusive: -56.1%"},
      {"smiles": "C/C(=N\\Nc1nc2ccccc2s1)c1ccc(Br)s1", "activity score": "inconclusive: -56.3%"},
      {"smiles": "O=C(N/N=C/c1ccc(F)cc1)c1cccc(NC(=O)c2ccc(F)cc2)c1", "activity score": "inconclusive: -57.9%"},
      {"smiles": "O=C(c1ccc([N+](=O)[O-])o1)N1CCc2ccccc2C1", "activity score": "active: -103%"},
      {"smiles": "O=C(N/N=C\\c1c(O)ccc2ccccc12)c1cncc(Br)c1", "activity score": "inactive: 62.5%"},
      {"smiles": "O=C(NCCS(=O)(=O)N1CCN(c2ccc(F)cc2)CC1)c1ccc(Br)o1", "activity score": "inactive: 127%"},
      {"smiles": "C=CCOc1ccc(C=Nc2ccc(C)c(Cl)c2)c(O)c1", "activity score": "inconclusive: -24.8%"},
      {"smiles": "O=C(Nc1ccc(Cl)cc1)c1ccc2c(=O)n3c(nc2c1)CCCCC3", "activity score": "active: -120%"},
      {"smiles": "c1ccc(CNc2nc(NCc3ccccc3)c3ccccc3n2)cc1", "activity score": "inactive: 106%"},
      {"smiles": "Cc1cc(C)n(-c2nnc(C)n2/N=C/c2cc(Br)ccc2OCc2ccccc2)n1", "activity score": "inconclusive: -60.3%"},
      {"smiles": "CC(=O)c1cccc(NC(=O)c2oc(C)nc2C)c1", "activity score": "inconclusive: -27.3%"},
      {"smiles": "COc1cccc(/C=N/Nc2nc(Nc3ccc([N+](=O)[O-])cc3)nc(N3CCCC3)n2)c1O", "activity score": "inactive: 65%"},
      {"smiles": "CCN1C(=O)/C(=C2\\C=Cc3ccccc3N2CC)SC1=S", "activity score": "inconclusive: -56.4%"},
      {"smiles": "O=C(c1ccco1)N1CCN(c2ncnc3sc4c(c23)CCC4)CC1", "activity score": "inconclusive: -55.1%"},
      {"smiles": "CC(=O)Nc1ccc(NC(=O)Nc2ccc(C)cc2C)cc1", "activity score": "inconclusive: -43.8%"},
      {"smiles": "CCOC(=O)Cn1c(S(=O)(=O)Cc2ccccc2Cl)nc(-c2ccccc2)c1-c1ccccc1", "activity score": "inactive: 54.3%"},
      {"smiles": "CS(=O)(=O)c1ccc2nc(NC(=O)c3cccc(NS(=O)(=O)c4ccc(F)c(F)c4)c3)sc2c1", "activity score": "inconclusive: -44%"},
      {"smiles": "COc1cc(-c2cc(-c3ccc(O)cc3)nc(N)c2C#N)ccc1O", "activity score": "inconclusive: -55.8%"},
      {"smiles": "CCNC(=S)NNC(=O)c1csc2c1CCC(C)C2", "note": "(stereo not drawn)", "activity score": "inconclusive: -45.4%"},
      {"smiles": "Cc1cc(NC(=O)c2ccc3[nH]c(C)c(C)c3c2)ccn1", "activity score": "inconclusive: -58%"},
      {"smiles": "CC(=O)NC(c1ccc(C)cc1)c1cc(Cl)c2cccnc2c1O", "note": "(stereo not drawn)", "activity score": "inactive: 59.9%"},
      {"smiles": "C/C(=N\\NC(=O)C(C)n1nc(C)c([N+](=O)[O-])c1C)c1ccccc1O", "note": "(stereo not drawn)", "activity score": "inactive: 77.8%"},
      {"smiles": "CCn1nc(C)cc1C(=O)NC1CCCc2c1cnn2-c1cc(F)cc(F)c1", "note": "(stereo not drawn)", "activity score": "inconclusive: -35.8%"},
      {"smiles": "COc1ccc(CC(=O)O/N=C(\\N)c2ccc(C)cc2)cc1", "activity score": "inconclusive: -51.1%"},
      {"smiles": "CCOc1cc(/C=N/NC(=O)c2cccs2)cc([N+](=O)[O-])c1O", "activity score": "inconclusive: -59.7%"},
      {"smiles": "O=C(/C=C/c1ccc(O)c(O)c1)OCCc1ccccc1", "activity score": "active: -131%"},
      {"smiles": "CCCCN(CCCC)C(=S)N/N=C/c1c(C)[nH]n(-c2ccccc2)c1=O", "activity score": "inactive: 92.8%"},
      {"smiles": "Cn1c(SCc2ccccn2)nnc1-c1cnccn1", "activity score": "inconclusive: -44.4%"},
      {"smiles": "O=C(Nc1nnc(-c2ccc3c(c2)OCCO3)o1)C1CCCCC1", "activity score": "active: -88.3%"},
      {"smiles": "C=CCNC(=S)NNC(=O)COc1ccc(Cl)cc1Cl", "activity score": "inconclusive: -37.8%"},
      {"smiles": "Cc1ccc(NC(=O)OC(C)CNC(=O)Oc2cccc(C)c2)cc1", "note": "(stereo not drawn)", "activity score": "active: -93%"},
      {"smiles": "COc1ccc(C2=Nn3c(nnc3-c3ccncc3)SC2)cc1OC", "activity score": "inactive: 71.8%"},
      {"smiles": "CCOc1ccc(NC(=O)Nc2cccc(C(=O)O)c2)cc1", "activity score": "inactive: 108%"},
      {"smiles": "O=C(c1ccccc1)C(Nc1ccccn1)c1ccccc1", "note": "(stereo not drawn)", "activity score": "inconclusive: -56.5%"},
      {"smiles": "Cc1nc(N2CCOCC2)nc2c1CCC2", "activity score": "inconclusive: -46.5%"},
      {"smiles": "COc1cc2c(cc1OC)C(c1cc(Br)ccc1F)N(C(=O)CCl)CC2", "note": "(stereo not drawn)", "activity score": "inconclusive: -50.1%"},
      {"smiles": "O=C(c1nn2c(C(F)(F)F)cc(-c3cccs3)nc2c1Br)N1CCCc2ccccc21", "activity score": "inactive: 82.2%"},
      {"smiles": "COc1cc(C(=O)N2CCN(c3cccc(C)c3C)CC2)cc(OC)c1OC", "activity score": "inactive: 58.3%"},
      {"smiles": "CN(C)c1nc(N)nc(CSc2nnnn2-c2cccc3ccccc23)n1", "activity score": "inactive: 68.9%"},
      {"smiles": "COc1ccc(/C(O)=C/C(=O)C(=O)Nc2c(C)n(C)n(-c3ccccc3)c2=O)cc1", "activity score": "inconclusive: -53%"},
      {"smiles": "Brc1ccc(OCCOc2cccc3cccnc23)cc1", "activity score": "inconclusive: -45.7%"},
      {"smiles": "Cc1ccc(C(=O)Nc2ccc3c(c2)OCO3)cc1S(=O)(=O)N1CCOCC1", "activity score": "inconclusive: -52.5%"},
      {"smiles": "CCOC(=O)c1c(NC(=O)c2cc(C)oc2C)sc(C(=O)Nc2ccc(Cl)cc2)c1C", "activity score": "active: -102%"},
      {"smiles": "COc1ccc(NC(=O)C(c2cc3c(cc2[N+](=O)[O-])OCO3)N(C)C)cc1", "note": "(stereo not drawn)", "activity score": "inconclusive: -60.1%"},
      {"smiles": "O=C(/C=C/c1ccco1)NC(=S)Nc1ccc(Cl)cn1", "activity score": "inconclusive: -56.5%"},
      {"smiles": "O=C(CNS(=O)(=O)c1cccs1)N1CCN(c2ccccc2F)CC1", "activity score": "inconclusive: -54.1%"},
      {"smiles": "O=[N+]([O-])c1ccc(N2CCCCC2)cc1NCCOc1ccccc1", "activity score": "inconclusive: -41%"},
      {"smiles": "CCCN1CCC(=NNc2ccc(S(=O)(=O)N3CCOCC3)cc2[N+](=O)[O-])CC1", "activity score": "inactive: 64.1%"},
      {"smiles": "CCCC(=O)NC(c1ccc2c(c1)OCO2)c1cc(Cl)c2cccnc2c1O", "note": "(stereo not drawn)", "activity score": "inactive: 80.4%"}
    ]}
  ]
}
